# Reference: the supplement of paper PMC3334620
# Over roughly 33,000 sequences, “E-score (-0.5 to 0.5)” has its median near -0.035; the highest 2% begin near 0.35. Some of the results follow.
# Molecular target: T1, Pdr3 (UniProt P33200)
# T1 sequence: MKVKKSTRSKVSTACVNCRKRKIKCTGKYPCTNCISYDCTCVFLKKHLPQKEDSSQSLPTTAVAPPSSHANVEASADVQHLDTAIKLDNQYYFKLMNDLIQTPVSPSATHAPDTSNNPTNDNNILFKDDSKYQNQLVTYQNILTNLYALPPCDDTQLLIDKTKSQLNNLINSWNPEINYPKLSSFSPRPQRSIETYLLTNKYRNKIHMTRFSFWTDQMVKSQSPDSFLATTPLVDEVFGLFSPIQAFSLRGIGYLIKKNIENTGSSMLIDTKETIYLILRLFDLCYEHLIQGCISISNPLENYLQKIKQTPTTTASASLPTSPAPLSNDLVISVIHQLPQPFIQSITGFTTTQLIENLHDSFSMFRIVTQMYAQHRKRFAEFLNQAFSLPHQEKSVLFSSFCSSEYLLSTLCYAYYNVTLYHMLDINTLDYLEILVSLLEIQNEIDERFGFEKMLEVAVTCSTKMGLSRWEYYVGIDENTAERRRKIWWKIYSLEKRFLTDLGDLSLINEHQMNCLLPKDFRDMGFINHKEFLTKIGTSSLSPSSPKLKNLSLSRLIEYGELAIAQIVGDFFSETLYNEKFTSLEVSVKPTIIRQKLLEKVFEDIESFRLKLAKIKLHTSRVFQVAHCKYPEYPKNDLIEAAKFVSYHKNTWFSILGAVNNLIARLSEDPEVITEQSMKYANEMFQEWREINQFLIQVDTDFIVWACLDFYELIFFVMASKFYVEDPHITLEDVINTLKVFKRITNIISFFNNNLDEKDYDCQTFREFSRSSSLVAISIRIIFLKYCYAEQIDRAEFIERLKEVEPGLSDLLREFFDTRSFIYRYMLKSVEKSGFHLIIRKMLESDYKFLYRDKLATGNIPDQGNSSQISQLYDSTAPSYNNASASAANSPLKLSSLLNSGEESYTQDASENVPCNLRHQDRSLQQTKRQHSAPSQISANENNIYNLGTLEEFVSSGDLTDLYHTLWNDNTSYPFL
# Assay: PBM E-score (8-mer binding enrichment) (E-score (-0.5 to 0.5)); higher = stronger / more preferred TF binding; most listed sequences are background and not binding sites
# Settings: protein concentration: 200 nM; construct: GST-full length
# Method in brief: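 PURExpress in vitro transcription/translation supplied GST-tagged yeast transcription factors, either full-length or DNA-binding domain. Applied at about 100-200 nM to universal all-10-mer Agilent arrays double-stranded by primer extension, the bound protein was detected with fluorescent anti-GST. E-scores, modified Wilcoxon-Mann-Whitney statistics, were given by the Universal PBM Analysis Suite to ungapped eight-base words pooled with their reverse complements after masliner normalisation.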
row,Sequence,PBM E-score
1,ATGGAAAG,0.0226
2,ACGCAAGA,0.0149
3,CTCTACGA,-0.266
4,TACATAGA,-0.116
5,AGCCTCCG,0.239
6,CCACGCTA,-0.156
7,CAGTGTCA,-0.0376
8,ACGATTCA,-0.116
9,AGGGTAAT,0.111
10,GGCCGACC,0.184
11,TATGCAAA,-0.342
12,AAATGCTA,-0.0642
13,AGAATATA,-0.229
14,AACGGGCA,-0.0251
15,AATGCATC,-0.149
16,TCCTCAAA,-0.253
17,CGCTCCCC,-0.155
18,CAGCTTGA,-0.0629
19,AGTCTAAG,0.0279
20,GCAGTTCC,0.265
21,AGTACATA,-0.0137
22,ATTCTCAA,-0.161
23,AGGTTAAA,-0.0444
24,CGAGGGCG,0.00307
25,ACACAGAC,-0.121

row,Sequence,PBM E-score
1,ATATATGG,0.0752
2,ACCATATC,0.125
3,AAAAAGCT,-0.119
4,CTCACTAC,-0.0293
5,AATTAGAG,-0.0202
6,CCTCGTCA,-0.0433
7,ACTCAGTG,-0.212
8,CTAGTTGA,-0.0407
9,CCCTGTAA,-0.139
10,CTCAACTA,-0.0622
11,AGGGTCAG,-0.345
12,AGACAGAC,0.138
13,GTAGACTA,-0.303
14,ATATAGAA,-0.00385
15,GAACGAAC,-0.0191
16,AAAGTCCA,-0.0765
17,AGCCTGGA,-0.118
18,AATCCCTA,-0.148
19,AGGGCTAG,-0.274
20,ACTATCCT,-0.0465
21,ACCCCGAC,0.178
22,CGGGCTAA,0.179
23,TAATAGAA,-0.0443
24,AGTCGAGG,-0.0618
25,ACTTACCA,-0.0984

row,Sequence,PBM E-score
1,CCTTGGGA,-0.0582
2,ATGACTGG,-0.165
3,CCGTCCCG,0.371
4,GAGCTATC,-0.129
5,CCTTATGC,-0.136
6,GCGGCGGA,0.404
7,TGCATTAA,-0.0594
8,TCTTACCA,-0.145
9,AGGGACGA,0.107
10,CAAGTAGA,-0.0308
11,CCGGCAAC,0.303
12,CTAGGAAA,-0.168
13,CGTCACCC,0.0801
14,CATAGCGA,-0.134
15,GTCCCTGA,-0.23
16,AGGTGGGG,-0.0698
17,CACAGTTC,0.185
18,CACTTTCG,0.0283
19,AAAATGGC,0.0732
20,GAGATGGC,0.157
21,GTCCAGAA,-0.00311
22,ATGTCGCA,0.0362
23,CAGAGGGA,-0.142
24,CGGAACAC,0.483
25,AGTCGTTG,-0.279

row,Sequence,PBM E-score
1,ATACGCGC,0.0551
2,AAGAAGAA,0.103
3,GCGATATA,0.0343
4,CAGGGGGG,-0.335
5,AGCTATTG,-0.0946
6,CCTACCGC,-0.0338
7,AGGTGTTC,-0.213
8,ACTTATCA,0.00828
9,ATAAGGGG,-0.014
10,TAGACACA,-0.238
11,AGTTGTCA,0.064
12,TCTATCCA,-0.103
13,ACTTCCTG,-0.121
14,GAATCAAA,0.0557
15,ATACTTAC,-0.00577
16,CGATGCAG,0.0208
17,TAATGCCA,0.0964
18,GCCTCAAC,-0.0751
19,TGCTGTAA,-0.218
20,AACCTGAA,-0.247
21,CATGGCAA,-0.0906
22,GCCGAACA,0.159
23,TTCAACAA,0.0248
24,CCAACTAG,-0.163
25,ACACAGGG,0.0204

row,Sequence,PBM E-score
1,GGGCTTGA,-0.211
2,CCAATTGC,-0.0711
3,CCCGAATA,0.14
4,AAGTAGAC,-0.201
5,AAATTATT,0.155
6,AAAGTTCA,0.0299
7,ACTTTACG,-0.0232
8,TGCCAAAA,-0.032
9,CGTGGGAA,-0.115
10,GTATTAAC,0.0325
11,GATAGAGC,-0.0951
12,GGGGATCA,-0.147
13,CAAAGCAC,-0.124
14,CTGTCTTC,0.00869
15,ACTTCGGG,0.146
16,AAAGTCCC,0.0137
17,ACCTTGCT,-0.116
18,ATATGGAT,0.0193
19,TAGCGGAA,0.357
20,ATCCACTG,-0.0362
21,ACAGCTAG,-0.113
22,CGGCACGC,0.12
23,AAAGAGGT,-0.11
24,ACCACTAT,-0.16
25,AAGGGATT,-0.172

row,Sequence,PBM E-score
1,ACTGAGGA,-0.0499
2,ACCCAGCG,-0.0803
3,ATTTAGCC,0.0178
4,CCATTTAC,0.0475
5,TGCATGAA,0.132
6,CCACTAAC,-0.287
7,CACCGTCG,0.0908
8,AGCAGATA,-0.0298
9,CTTGCATA,-0.164
10,ATTTTGAA,0.0256
11,GACTCAAC,-0.136
12,ATTTACGG,0.249
13,GATACAAC,0.0754
14,CTCTGGTA,-0.214
15,AGCCGTGG,0.124
16,ACAAGGTG,-0.125
17,GACGAGGA,-0.173
18,TATCGCGA,0.258
19,ACCAACTG,-0.0243
20,AGATCGTC,-0.165
21,CATAGTGG,-0.0584
22,AGAAGCAG,-0.174
23,GGCGATAA,0.109
24,CACATCCC,0.097
25,ATGATGAA,0.146

row,Sequence,PBM E-score
1,AGGCCGAA,0.034
2,GACATTAC,-0.00492
3,GCCGTAGC,0.0133
4,CGTCAGAG,-0.133
5,GTGTTACA,-0.197
6,GACGACAA,0.145
7,AAACGCTA,-0.252
8,AGGCGATA,-0.0322
9,ACTGTGCT,-0.0381
10,ACCCGAGA,0.258
11,AGACCCGG,0.285
12,CGGTGAGA,0.109
13,CAATACAC,-0.192
14,GGGCCTAC,-0.199
15,CACTGGCG,-0.0992
16,ATGTCCCG,0.351
17,GCACCACC,0.0118
18,CCTACAAA,-0.106
19,CGGAGACC,0.332
20,CTGACAGA,-0.102
21,TATCAATA,-0.104
22,AACCACAC,0.0755
